According to article PMC2174220 (The Journal of Cell Biology, 1999):

B1: dynamitin (p50) subunit of dynactin, endogenous bovine (natural protein)
chain: not shown
B2: p24 subunit of dynactin (natural protein)
chain: not shown

Key:
p24 subunit of dynactin = target: B2; experiment: co-sedimentation
[1] = target: B1; experiment: SEC

Chain of p24 subunit of dynactin (Q0P5A1 whole entry): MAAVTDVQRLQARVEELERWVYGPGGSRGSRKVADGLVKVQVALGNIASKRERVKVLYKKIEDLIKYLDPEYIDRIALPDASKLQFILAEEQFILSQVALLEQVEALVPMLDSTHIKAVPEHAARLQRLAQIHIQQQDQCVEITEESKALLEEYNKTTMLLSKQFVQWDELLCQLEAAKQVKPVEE

| stoichiometry N (p24 subunit of dynactin) | binding result [1] | Binder |
| --- | --- | --- |
| 2 dynamitin per 1 p24 (molar ratio in the shoulder) | – | B1 |
| – | binds | B2 |
